Measured values: the RNAGym collection of RNA variant scans (doi:10.1073/pnas.2313332121)
Variants at the floor of the assay are shown more often than the library holds them.

B1: TPR 5TU (parent)
chain: GGAUCUUCUCGAUCUAACAAAAAAGACAAAUCUGCCACAAAGCUUGAGAGCAUCUUCGGAUGCAGAGGCGGCAGCCUUCGGUGGCGCGAUAGCGCCAACGUUCUCAACUAUGACACGCAAAACGCGUGCUCCGUUGAAUGGAGUUUAUCAUG

Variants of: B1
Experiment: polymerase ribozyme fitness, log enrichment relative to wild type (log ratio); higher = more active; in vitro selection for triplet polymerase activity
Method in brief: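 Fitness measures genotype enrichment against wild-type enrichment on a logarithmic scale, with inverse-variance-weighted averaging of replicates. The logarithm is base 2, and genotypes were kept only with ≥10 input reads and ≥1 read per output in Illumina sequencing. The sequenced libraries came from one triplicate in vitro selection round, including frozen incubation at −7 °C, of PCR-built, transcribed mutant libraries of each subunit of a heterodimeric triplet polymerase ribozyme.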

Variant	polymerase ribozyme fitness (log ratio)
U6A A19U A29C G42C G92U A113G	≤ -4.2
U6A G25A A26C G50U A52G C76G C118G G136A	≤ -4.2
C5U C27U G62A C69U C85G C95G	≤ -4.2
C5G U53G C57A G80C A91U U144C	≤ -4.2
U6C C8A U111G G143C	≤ -4.2
C5G U56G G84A A107C	≤ -4.2
U6G C8U A16U A29U G48A C72U U139C	≤ -4.2
U7A A21C C54A G86C C114G A120U	≤ -4.2
U6C A24C G86U U104G C125U	≤ -4.2
U6G A89U A138U	≤ -4.2
C5G C75U G86C U151A	≤ -4.2
U6C A12U A49C C85U G86C A97C U139C A142U A150U	≤ -4.2
U6A A17G A52C A64U G68A C87G C96U G143U A150C	≤ -4.2
C5G A12U U31A A41U C54U U56A G88A U127C A137C G141A	≤ -4.2
U6G C35A C38U G48A C79G A91U A98G C103A C125U A142G G143A	≤ -4.2
U6C U55G C132A A138G	≤ -4.2
C5U G83U A138U A142U	≤ -4.2
C5G A30G G88C	≤ -4.2
U6G G86C U135G	≤ -4.2
C5G A28G G48C G83C U104G G133U	≤ -4.2
U6C A47C G81C C87G C96U	≤ -4.2

Variant	polymerase ribozyme fitness (log ratio)
U6A C18G A47G A49C G81A A97G C116G	≤ -4.2
U6A C27U U45A C54G U78C G84A U148C	≤ -4.2
C5G A12C C51U C57U C95U C99A C105U U144A A150G	≤ -4.2
C5U C38U C63A U77A C95U U127G G136U U144C	≤ -4.2
U6G C8G C43G C85U A97U G126A G143C	≤ -4.2
U6G A52G U56C G62C C87U C96U	≤ -4.2
U6G A47C U55A G68A G81C C93A C96G U101C U109A	≤ -4.2
U7A A22G C72A A122U C131A	≤ -4.2
C5U U55G A60U G81U G86U A98C U127G G136U	≤ -4.2
U6A A30U C54A G84A C93A	≤ -4.2
C5G G46A C54U G83U C85G	≤ -4.2
U6G A20U A73U U134C U145G	-3.22
C5U A28U C38A U55G U56A A73U	≤ -4.2
C5U A49U G81A C96G C132G	≤ -4.2
C5G U33G G48U C85A U139C A142G	≤ -4.2
U6C C8A A20C G46A G80U G141C	≤ -4.2
U7A A17C A142C	-3.31
U6C A39C A66G U90A C93A C99A G100C C103A C116G A147C	≤ -4.2
U6G C10G A49C U53A U55A U109G A115G G126C	≤ -4.2
C5G U9G A21U C43U G152A	≤ -4.2
U6G A22U A40G C57A G94A	-2.43

Variant	polymerase ribozyme fitness (log ratio)
U7A A16U A20G G48A C57A G58U A64G C87A G92U G126A C129A A137C	≤ -4.2
C5G A41U A49C U77G C95U C114U C132U	≤ -4.2
U6C A17U U33C C51G C57G G83U C95G A98G U127G	≤ -4.2
C5A U13G C27A G34A G42C C96A	≤ -4.2
U6A C38G G42C G86U C93U U127A	≤ -4.2
C5G A30C C108A G141U	≤ -4.2
C5U C14G A26C U56A G70C U78C A97U G141U	≤ -4.2
U6C A47G G59C G92U C99A C118G	-3.32
U6G A28G A40U G92C	≤ -4.2
C5G G71U	-3.09
C5G U15G A19G A23U C103G G124A C131A	≤ -4.2
C5U G67U C76U G80C C93U C103G	≤ -4.2
C5G U9G C10A A49C U77G C87A C95U A113C U139G A142U U144A	≤ -4.2
C5G U44C G58C C85A G141A	≤ -4.2
C5G U6C G50A	-2.74
U6G C10U U15C A16G A21C G34U C54U C93A	≤ -4.2
U6G C10G G58U G59C U61A C63A C99U	≤ -4.2
C5U A12U G84U	-1.92
U6A A12U U53A C114U	-3.59
U6G C38U U45A G50C U55A G65U A73G C95A C108G	≤ -4.2
C5U A20C A29G A115C U130G C132U U146C	≤ -4.2

Variant	polymerase ribozyme fitness (log ratio)
U6C C87U	-1.52
U6C U7G A49G A66C G74A C96G	≤ -4.2
U6A A16U A24C A113C	≤ -4.2
U6C U56C A89C A121U	-2.59
U6C C14G U55G A60U	≤ -4.2
C5U A24C C54U G58C C87G A89C A91U U111C	≤ -4.2
U6C C18G A26U A40C A47C A49G U61G A73U C76G C87G	≤ -4.2
U6G U134C	-0.128
U6G C8G G84A A137C U144C	≤ -4.2
C5G G92A C96A	-3.11
C5U A16G C93A C125U A137U	≤ -4.2
U6G U9G A28U U56A G59A A142C U146G	≤ -4.2
C5G A41U G59C G84A	-2.99
U6A A20U A30U A47C U56A G68U	≤ -4.2
U6G G59C A66G A120U	≤ -4.2
U6C A30U A40U U135C A147C	≤ -4.2
C5U A23U U56A C85U U102G C118U U148G	≤ -4.2
C5G U6C C35G A49C U82A	≤ -4.2
U6G A21U C57G G71U A91U U139A	≤ -4.2
U6G U53A A64U C85A G124A	≤ -4.2
